Assay results taken from PubChem BioAssay AID1508623 (National Center for Advancing Translational Sciences (NCATS), 2021).
The campaign covered roughly 48,000 compounds. About 450 (0.94%) were called active. Inconclusive results (about 19%) are left out. Calls follow the shape of the dose curve; as a rule, active = well fitted inhibition curve with a large enough effect; inconclusive = small, poorly fitted or top-dose-only effect; inactive = no such curve, though single readings can be large or run the other way. Some of the results follow.

test: Primary qHTS for Identification of Small Molecule Inhibitors of Huntingtin Promoter Activity; conditions: HEK293 HTT promoter firefly luciferase reporter (activity 0% = vehicle and -100% = no light), 24 h; series mostly up to 57.5 µM; activity change, negative = inhibition: at the top concentration; also: nearly all actives have a fitted effect of over 50% in size
Method in brief: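 Luminescence was read after Dual-Glo reagent and a 10 min room-temperature incubation. Values were normalized to vehicle (0% activity) and zero RLU (-100% activity). Reporter HEK293 cells had been exposed to compounds (up to 57.5 uM final) for 24 h.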

Activity change, negative = inhibition, inactive:
CCOc1ccccc1NC(=O)Cn1nnc(C(=O)NCc2ccc(F)cc2)c1N -12.9%
Cc1ccc(S(=O)(=O)N(C)Cc2nc(-c3ccccc3)oc2C)cc1 0%
CCc1nc2nc(C)c(NS(=O)(=O)c3ccc(C)cc3)c(=O)n2[nH]1 -6.64%
COc1ccc(-c2c(C)nn3c(C(F)(F)F)cc(-c4ccccc4)nc23)cc1 1.95%
COc1ccc(OC)c(NC(=O)c2cc(C3CC3)nc3c2c(C)nn3-c2ccc(C)cc2)c1 -13.2%
Cc1cc(C)cc(NC(=O)Cc2c(C(=O)O)c(C)cn2C)c1 -6.97%
O=C(Cn1cc(SCc2ccccc2F)c2ccccc21)N1CCCCC1 14.5%
O=C(NCc1ccco1)c1ccc2c(c1)N(Cc1c(F)cccc1Cl)C(=O)c1ccccc1S2 -22.6%
CCCCCCCCCCCCCCCCC(C(=O)O)C(O)(CC(=O)O)C(=O)O (stereo unspecified) 11.5%
CC(=O)c1cccc(NC(=O)C2CCN(S(=O)(=O)c3ccc4[nH]c(=O)ccc4c3)CC2)c1 -2.56%
Cc1ccc(CNC(=O)C2CCN(Cc3nc(-c4cccc(Br)c4)oc3C)CC2)cc1 -1.89%
CCOc1ccc(-n2c(=O)c3c4c(sc3n(CC(=O)NC(C)CC)c2=O)CCCC4)cc1 (stereo unspecified) 6.02%
Cc1cccc(-n2c(=O)c3ccccc3n(Cc3ccccc3)c2=O)c1 -24.3%
Cc1ccc(-n2nc3ccc(NC(=O)COc4ccccc4)cc3n2)cc1Cl 1.85%
CCc1cc2c(cc(C(=O)OC)n2Cc2nc(-c3ccc(C)cc3)oc2C)s1 -6.02%
O=C(CSc1nc2c([nH]c3ccccc32)c(=O)n1-c1cccc(C(F)(F)F)c1)N1CCc2ccccc21 -7.07%
O=C(O)c1ccc(CNCc2ccccc2Cl)s1 -11.1%
CCc1ccc(C(=O)N2CCC(c3nc(-c4ccc(S(=O)(=O)N5CCCC5)cc4)no3)CC2)cc1 -12.5%
O=S(=O)(c1ccc(Br)cc1)c1nnn2c1nc(NCc1ccc3c(c1)OCO3)c1sccc12 1.81%
COc1cc(Cl)c(C)cc1NC(=O)Cn1ncc2c1-c1cc(C)ccc1OC2 -16.5%
CCCSc1ncc(Cl)c(C(=O)Nc2c(C(=O)Nc3ccc(OC)cc3)oc3ccccc23)n1 -15.1%
CCCOc1ccc(CNC(=O)CCCn2nc(C)c3sc4ccccc4c3c2=O)cc1 -10.3%
Cc1ccc(CNC(=O)CCCCCn2c(=O)c3sccc3n(CC(=O)Nc3c(C)cc(C)cc3C)c2=O)cc1 -25.9%
CC1CCCN(Cc2nc3c(c(=O)n(C)c(=O)n3C)n2Cc2ccc(Cl)cc2)C1 (stereo unspecified) -4.64%
O=C(Nc1cc(Cl)ccc1Cl)c1cc2nc(-c3ccc4c(c3)OCO4)cc(C(F)(F)F)n2n1 -3.54%
Cn1nc(C(=O)NCc2ccccc2Cl)c2c1-c1ccccc1S(=O)(=O)C2 -28.1%
CSc1ccc(CNC(=O)C2CCN(c3nc4ccccc4nc3C(F)(F)F)CC2)cc1 -4.18%
Cc1cc(C)c(S(=O)(=O)N2CCC(N3CCN(Cc4ccccc4)C(=O)C3=O)CC2)c(C)c1 -16.3%
COc1ccc2c(c1)c1c(c(=O)n(-c3ccccc3C)c(=O)n1C)n2C -4.08%
COc1ccc(-n2ncc(C(=O)N3CCN(c4cc(C)ccc4C)CC3)c2C2CCN(C(=O)OC(C)(C)C)CC2)cc1 2.47%
COc1ccc(CNCc2c(C(=O)O)c(C)n(Cc3ccccc3C)c2C)c(OC)c1 -15.6%
CCN(CC)CCNC(=O)c1cn(CCOC)c(=O)c2c1c1ccccc1n2C -8.04%
CCCCNC(=O)C1CCN(c2nc3ccccc3nc2C(F)(F)F)CC1 -22.2%
Cc1nnc(NC(=O)CSc2nccn2Cc2ccc(Cl)cc2)s1 -24.1%
O=C(CSc1cn(CCNC(=O)c2c(F)cccc2F)c2ccccc12)Nc1ccc(F)cc1 -27.2%
Cc1nc2nc(NC(=O)CC(C)C)[nH]n2c(=O)c1Cc1ccccc1 -11.9%
Cc1ccc(-c2c(C(=O)N3CCN(c4cc(Cl)ccc4C)CC3)oc(=O)c3ccccc23)cc1 -8.69%
COc1ccc(C)cc1NC(=O)c1cc2c(=O)n(Cc3cccnc3)ccc2nc1C -1.99%
O=C(Nc1ccc(F)c(Cl)c1)N1CCC2(CC1)Oc1ccccc1C(=O)N2Cc1ccccc1F -14.6%
CCc1nnc(SCC(=O)Nc2cc(OC)ccc2OC)nc1CC -22.2%
Cc1cccc(Cn2c(COc3ccc(Cl)cc3)nc3ccccc32)c1 -20.7%
CCOc1ccc(S(=O)(=O)N(CC(=O)NCCSc2ccc(C)cc2)c2ccccc2)cc1 -8.21%
CCn1nc(-c2ccccc2)c(-c2ccccc2)c(C(=O)Nc2nc(C)c(C(C)=O)s2)c1=O -9.26%
CCC(=O)N1CCc2cc(CNC(=O)c3ccc(OC)cc3)ccc21 -25.2%
CCCCn1cc(S(=O)(=O)c2ccc(C)c(C)c2)c(=O)c2cc(F)c(N(CC)CC)cc21 4.75%
COc1ccc(-c2nc(CN3CCC(C(=O)NCCc4ccccc4)CC3)c(C)o2)cc1OC -0.16%
Cc1ccc(NC(=O)CSc2nc(=O)n(Cc3ccco3)c3c2CCC3)cc1F 0%
Cn1c(=O)c(=O)n(C)c2cc(N3CCCC3)c(NC(=O)c3ccccc3F)cc21 -3.59%
Cc1ccc2c(c1)-c1onc(C(=O)N3CCN(c4cc(Cl)ccc4C)CC3)c1CO2 -17.2%
COC(=O)c1ccccc1NC(=O)c1cc(CN2CCCC2)on1 20.5%
CCC(=O)N1CCc2cc(CNC(=O)Cc3ccc(F)cc3)ccc21 8.35%
CCOC(=O)c1c(NC(=O)COc2ccc(C)cc2C(C)(C)C)sc2c1CCC(C)C2 (stereo unspecified) -6.14%
Cc1c(C(=O)N2CCC(C)CC2)c(S(=O)(=O)Nc2cccc(C(F)(F)F)c2)c(C)n1C -38.1%
COc1ccc(CNC(=O)Cn2c(=O)ccc3cc(S(=O)(=O)N4CCCC4)ccc32)cc1 -13.6%
Cc1ccc(Cn2c(CNC(=O)Cc3cccc(C)c3)nc3cccnc32)cc1 -8.27%
Cc1nn(S(=O)(=O)c2ccc(C(C)(C)C)cc2)c(C)c1S(=O)(=O)N1CCC(C)CC1 -9.3%
COCCN1C(=O)c2oc3ccc(C)cc3c(=O)c2C12C(=O)N(C)c1ccccc12 (stereo unspecified) -8.89%
CC(=O)Nc1ccc(NC(=O)C2(c3cccs3)CCOCC2)cc1 -5.56%
COc1ccccc1CNC(=O)c1cnc(SC)nc1C 0.423%
COCC(=O)Nc1cccc(-c2nc3cccnc3s2)c1 17.3%
COc1ccc(NC(=O)c2sc3nc4c(c(-c5ccc(OC)cc5)c3c2N)C(=O)CC(C)(C)C4)cc1 -14%
